Data taken from article PMC4336329 (PLoS ONE, 2015).
Among all 310,000 compounds or so, about 14,000 (4.5%) showed an effect of 50% or more. Effects have a minus sign here. This is one part of the list.

What follows are compounds tested against human ether-à-go-go-related gene (hERG) potassium channel (human, UniProt Q12809) (assay: primary screen, population patch clamp on CHO cells stably expressing hERG).
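Also: peak tail current of the secondary pulse compared with the same well before compound.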

Sequence of human ether-à-go-go-related gene (hERG) potassium channel (Q12809 whole entry, looked up): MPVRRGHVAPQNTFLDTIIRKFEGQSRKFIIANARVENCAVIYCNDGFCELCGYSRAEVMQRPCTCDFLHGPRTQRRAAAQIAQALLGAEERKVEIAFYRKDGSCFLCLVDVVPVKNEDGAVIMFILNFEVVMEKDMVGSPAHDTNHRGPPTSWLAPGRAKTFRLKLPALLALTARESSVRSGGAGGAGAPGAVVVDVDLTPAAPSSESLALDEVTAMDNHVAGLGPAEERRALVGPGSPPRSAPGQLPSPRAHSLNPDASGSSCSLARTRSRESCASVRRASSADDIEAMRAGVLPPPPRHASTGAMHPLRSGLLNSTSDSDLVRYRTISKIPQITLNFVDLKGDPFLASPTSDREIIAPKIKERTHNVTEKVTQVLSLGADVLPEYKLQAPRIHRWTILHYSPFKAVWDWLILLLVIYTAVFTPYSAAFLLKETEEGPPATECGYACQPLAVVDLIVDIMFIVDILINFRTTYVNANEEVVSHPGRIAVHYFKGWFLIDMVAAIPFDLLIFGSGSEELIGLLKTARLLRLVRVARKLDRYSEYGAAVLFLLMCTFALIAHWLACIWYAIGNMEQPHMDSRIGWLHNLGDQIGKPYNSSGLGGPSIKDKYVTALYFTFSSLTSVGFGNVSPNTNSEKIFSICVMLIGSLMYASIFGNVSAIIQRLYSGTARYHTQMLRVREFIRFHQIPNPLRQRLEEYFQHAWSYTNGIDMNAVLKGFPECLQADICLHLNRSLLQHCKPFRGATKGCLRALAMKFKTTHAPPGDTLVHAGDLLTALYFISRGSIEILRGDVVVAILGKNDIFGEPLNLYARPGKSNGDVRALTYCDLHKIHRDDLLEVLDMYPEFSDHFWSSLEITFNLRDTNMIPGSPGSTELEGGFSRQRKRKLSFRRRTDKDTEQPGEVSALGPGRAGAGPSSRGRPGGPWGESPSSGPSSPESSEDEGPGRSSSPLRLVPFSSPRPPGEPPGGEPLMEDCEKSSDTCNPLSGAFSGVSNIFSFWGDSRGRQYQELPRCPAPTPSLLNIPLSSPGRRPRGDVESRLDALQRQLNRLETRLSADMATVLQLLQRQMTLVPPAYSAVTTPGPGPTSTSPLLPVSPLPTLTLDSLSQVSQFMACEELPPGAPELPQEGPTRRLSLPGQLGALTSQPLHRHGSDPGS

| SMILES | hERG current change (%, negative = inhibition) at 10uM [%] |
| --- | --- |
| N#CCCC12CCCCC1=Nc1ccccc12 (stereo not drawn) | 6.76 |
| O=C(Nc1ccc(Br)cc1F)c1ccncc1 | -11.2 |
| CCc1ccc(CNC(=O)C2CCN(S(=O)(=O)N3CCC(C)CC3)CC2)cc1 | 1.4 |
| CS(=O)(=O)N1N=C(c2cccs2)CC1c1ccccc1O (stereo not drawn) | 0.712 |
| COc1cc(C(F)(F)F)c(C(=O)N(C)Cc2ccc(Cl)c(Cl)c2)cn1 | -15.4 |
| COc1ccc(-n2nc(C(=O)NCC(=O)N3CCN(c4cccc(Cl)c4)CC3)c3ccccc3c2=O)c(OC)c1 | -2.74 |
| CCOc1ccc(N2CC(C(=O)NCCc3ccccc3)CC2=O)cc1 (stereo not drawn) | -29.6 |
| CCCCC1=NN(C(=O)c2cccnc2)C(O)(C(F)(F)F)C1 (stereo not drawn) | 16.1 |
| CCNc1nc(NC(C)C)nc(Oc2ccc(OCCOc3ccc(C)cc3)nn2)n1 | -48.2 |
| COc1ccc(-c2n[nH]c(=S)n2-c2ccc(C)cc2)cc1 | 8.3 |
| CC(C)Oc1ccc(Cc2cnc(=S)[nH]c2N)cc1 | 15.8 |
| CC(C)Cn1c(N)c(C(=O)CSc2nc3ncc(Cl)cc3[nH]2)c(=O)n(C)c1=O | -0.019 |
| CCCC1CCC(c2ccc(C(=O)NN)cc2)CC1 (stereo not drawn) | 5.09 |
| Cc1[nH]nc2c1C1(C(=O)N(Cc3ccc(Cl)cc3)c3ccccc31)C(C#N)=C(N)O2 (stereo not drawn) | -25.9 |
| CC1CCC(C(C)C)C(=O)/C1=C/c1ccc(N)cc1 (stereo not drawn) | -17 |
| CC1=[N+]([O-])C(C)(C)N(O)C1(C)C | 18.1 |
| COc1ccccc1NS(=O)(=O)c1cccc(NC(=O)Nc2ccccc2)c1 | 13.7 |
| Cc1ccc(-n2c(O)c(C=NCC3CCCO3)c(=O)[nH]c2=O)c(C)c1 (stereo not drawn) | 20.8 |
| O=C(O)C1CCCN1C(=O)c1cccs1 (stereo not drawn) | 10.1 |
| O=C(Nc1ccc(N=Nc2ccccc2)c(NC(=O)C2CCCO2)c1)C1CCCO1 (stereo not drawn) | -22.9 |
| CCS(=O)(=O)Nc1cccc(C(=O)O)c1 | -0.622 |
| COc1ccc(/C=C/C(=O)Nc2cc(C(F)(F)F)ccc2Cl)cc1OC | 11 |
| Cc1cccc(NC(=O)NNS(=O)(=O)c2ccc(F)cc2)c1 | -1.81 |

| SMILES | hERG current change (%, negative = inhibition) at 10uM [%] |
| --- | --- |
| O=C(O)c1cc(N/N=C/c2ccc(-c3ccccc3)cc2)ccc1Cl | 16.7 |
| O=C(CCC(=O)NNC(=O)c1ccccc1[N+](=O)[O-])NCc1ccccc1 | 10.9 |
| COc1ccc(S(=O)(=O)NCc2ccccn2)cc1OC | 14 |
| CN(CCNS(=O)(=O)c1ccc2c(c1)oc(=O)n2C)Cc1ccccc1 | -18.1 |
| COCCCNC(=O)Cn1c(=O)n(CCCCCC(=O)Nc2ccccc2)c(=O)c2sccc21 | -0.555 |
| N#CCCN(Cc1ccccc1)C(=S)Nc1ccccc1 | -14.3 |
| CCOc1ccc(NC(=O)[C@@H]2CCCN2C(=O)c2cccs2)cc1S(=O)(=O)N1CCOCC1 | 6.27 |
| Cc1ccc(OCC(=O)NC2CCCC2)c(C)c1 | 2.93 |
| COc1ccc(OCc2cc(C(=O)N(C)C(C)c3ccon3)no2)c(Cl)c1 (stereo not drawn) | -7.91 |
| Cn1c2c(c(=O)n(C)c1=O)CN(Cc1ccco1)CN2 | 4.7 |
| CN(NC(=O)c1ccccc1Cl)c1ncc(C(F)(F)F)cc1Cl | -1.95 |
| CCC(C)C(=O)OCC1(c2ccc(C)cc2OC(=O)C(C)C)CO1 (stereo not drawn) | 5.95 |
| Cc1cc2ncn(S(=O)(=O)c3ccc(F)cc3)c2cc1C | 9.64 |
| CC(=O)Nc1cccc(NC(=O)Nc2ccc(C(C)=O)cc2)c1 | 12.4 |
| COc1cc(OC)cc(C(=O)NCC(=O)OCC(=O)Nc2cc(S(C)(=O)=O)ccc2Cl)c1 | 10.7 |
| Cc1ccc(Cn2c(=N)c(S(=O)(=O)c3ccc(C)cc3)cc3c(=O)n4ccccc4nc32)cc1 | 17.7 |
| CCOC(=O)c1cccc(NC(=O)Cn2nc(C)n3cccc3c2=O)c1 | -1.5 |
| COc1cc(C(=S)N2CCN(c3cccc(Cl)c3)CC2)ccc1O | 9.46 |
| COC(=O)C1C(=O)C2=C(CC1C)NC(C)=C(C(=O)OC1CCCCC1)C2c1ccc(N(C)C)cc1 (stereo not drawn) | 8.41 |
| COC(=O)c1c(C(=O)OC)c(-c2ccc(C)cc2)n2c1CS(=O)C2 (stereo not drawn) | -53.8 |
| CCOC(=O)CC1C(=O)NCCN1S(=O)(=O)c1ccccc1Cl (stereo not drawn) | -7.16 |
| Cc1ccc2nc(Cl)c(-c3ccccc3)cc2c1 | -3.06 |
